The campaign covered roughly 340,000 compounds. About 120 (0.035%) were called active. The shares of active, inactive and inconclusive entries below differ from those in the screen.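 How the source made its calls: active means mean replicate inhibition at least 50% and at least half of replicates individually reaching 50%; inconclusive means only one of the two criteria met; inactive means neither criterion met.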
Assay: E. coli Tat export inhibitors, primary screen, MC4100, TorA-mCherry reporter, fluorescence, single point (AID 488895);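 further: exported cargo escapes ClpAP degradation while cytoplasmic cargo is degraded and loses fluorescence; 0% = median of neutral control wells and 100% = median of NaSCN control wells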
Settings: at 10 µM, hits give high values

Structure (SMILES) | inhibition
Cc1nc2ccccc2c(=O)n1CCCO | inconclusive: 28.6%
Cn1c(-c2ccccc2)cnc1N | inconclusive: 39.9%
Cc1ccc(NC(=O)CSc2nccn2C)cc1F | inconclusive: 26%
C=CCn1c(C)cc(C(=O)CN2C(=O)c3ccccc3C2=O)c1C | inconclusive: 31%
C=CCOc1ccccc1CN1CCC(n2nccc2NC(=O)C2CC2)CC1 | inconclusive: 36.4%
O=C1c2ccccc2NC(c2ccc(Cl)cc2Cl)N1O (stereo not given) | inconclusive: 29.5%
CC(=O)c1ccc(NC(=O)CSc2nc(N3CCOCC3)nc(N3CCOCC3)n2)cc1 | inconclusive: 29.4%
Oc1ccc(/C=N/Nc2ccccc2)cc1 | inconclusive: 30.7%
COC(=O)COc1cccc(NC(=O)c2cccc(C)c2)c1 | inconclusive: 21%
COC(CNc1ncnc2sc(-c3ccccc3)cc12)OC | active: 58.2%
COc1ccc(CC(=O)O/N=C(\N)c2ccccn2)cc1OC | inactive: -1.22%
CCOC(=O)C1CCN(C(=O)Nc2ccc(C)c(Cl)c2)CC1 | inconclusive: 28.8%
O=C(Nc1ccc(Oc2ccccc2)nc1)C1CCCCN1Cc1ccc(OCCO)cc1 (stereo not given) | inconclusive: 24.7%
CS(=O)(=O)c1ccc([C@@H](O)[C@@H](CF)NC(=O)C(Cl)Cl)cc1 | active: 147%
CCOC(=O)N1CCN(c2ccc(C(=O)CC)cc2F)CC1 | inconclusive: 29.5%
O=C(NCc1cccnc1)Nc1cccc(C(F)(F)F)c1 | inactive: 10.8%
CCNC(=O)c1cc2ccccc2o1 | inactive: 1.36%
COCn1c(-c2cccc(Br)c2)nc2ccccc21 | inconclusive: 30.5%
Cn1c(C(=O)NCc2cccs2)cc2c(=O)n(C)c3ccccc3c21 | inconclusive: 26.3%
COc1ccc(C2CC(=O)Nc3n[nH]c(-c4ccccc4)c32)cc1OC (stereo not given) | inconclusive: 30%

Structure (SMILES) | inhibition
CC1(C)N=C2C(=[N+]1[O-])CCC/C2=N\O | inconclusive: 28.4%
Cc1cc(C(=O)CSc2nnc(-c3ccc4c(c3)OCO4)o2)c(C)n1-c1ccc(F)cc1 | inconclusive: 41.9%
c1ccc(OCCSc2nc3ccccc3o2)cc1 | inactive: 10.1%
COc1ccc(NC(=O)c2ccccc2[N+](=O)[O-])cc1OC | inconclusive: 27.2%
CCn1cc(C(=O)O)c(=O)c2cc(F)c(N3CCNCC3)nc21 | active: 62.4%
Cc1ccc(S(=O)(=O)N(CC(=O)Nc2ccccc2-c2ccccc2)c2ccc(C)cc2C)cc1 | inconclusive: 29.4%
Oc1c(C(Nc2cccc(C(F)(F)F)c2)c2cccnc2)ccc2cccnc12 (stereo not given) | inactive: -5.05%
[O-][n+]1cccc2c(Br)cc(Br)c(O)c21 | inactive: -7.49%
COc1ccc(OCc2nnc(SCC(=O)N3C(C)CCCC3C)o2)cc1 (stereo not given) | inconclusive: 26.2%
O=C1CCCC2=C1C(c1cccs1)CC(=O)N2c1ccc(F)cc1 (stereo not given) | inconclusive: 29.6%
CCOc1cc(/C=N/NC(=O)C(=O)NCc2cccnc2)ccc1O | inconclusive: 28.1%
COc1ccc(OC)c(S(=O)(=O)NCCc2ccccc2)c1 | inconclusive: 26.3%
CN1CCN(CCC(=O)Nc2ccc(OCc3ccccc3)cc2)CC1 | inconclusive: 22.6%
Cc1ccc(C)c(CSc2nnc(-c3cccnc3)o2)c1 | inactive: -4.97%
Cc1ccc(Cn2c(=O)oc3ccccc32)cc1 | inconclusive: 21.4%
COc1cccc(NC(=O)Nc2nc(SC(C)(C)C)ns2)c1 | inactive: -20.7%
O=C(Nc1cccc(-c2nc3cccnc3s2)c1)C1c2ccccc2Oc2ccccc21 | inconclusive: 39%
O=C(CCSc1ccccc1)NCC1CCCO1 (stereo not given) | inconclusive: 39.1%
CC(C)(C)NC(=O)C[C@H]1C[C@H](C(=O)N2CCOCC2)[C@@]2(CCC3CCCC3)c3[nH]c4cc(-c5ccco5)ccc4c3CCN2C1=O | inconclusive: 20.9%
NC(=O)c1oc2ccccc2c1NC(=O)c1ccc(F)cc1 | inactive: -4.72%

Structure (SMILES) | inhibition
CCCCCCCCCCCCCCCC[n+]1cccc2ccccc21 | inactive: 4.87%
Cc1cccc(/C=N/NC(=O)c2cc(C3CC3)nc3ccccc23)n1 | inconclusive: 26.6%
Cc1[nH]c2ccccc2c1Cc1nnc(SCC(N)=O)o1 | inconclusive: 34%
CCCCCCCCCCCCCCCC[N+](C)(C)CCN(Cc1ccc(OC)cc1)c1ncccn1 | active: 53.6%
N#CCc1ccc(NC(=O)/C=C/c2ccc([N+](=O)[O-])o2)cc1 | inactive: 3.48%
N#C/C(N=Nc1ccccc1O)=N\Nc1ccccc1O | inactive: -2.81%
Cn1cc(S(=O)(=O)N2CCOCC2)cc1C(=O)NCCc1ccccc1 | inactive: -0.527%
COCC(=O)Nc1nnc(Cc2ccc(OC)cc2)s1 | inconclusive: 27.3%
CC(C)OC(=O)Cn1c(=O)oc2ccccc21 | inconclusive: 41.5%
O=C(CN1CCN(Cc2ccc(Cl)cc2)CC1)N/N=C/c1c[nH]c2ccccc12 | inconclusive: 30.9%
COc1ccc(NC(=O)C/C(C)=N/NC(=O)C(=O)Nc2cccc(Cl)c2C)c(OC)c1 | inconclusive: 34.2%
CCOCCCn1c(=N)c(S(=O)(=O)c2ccccc2)cc2c(=O)n3cc(C)ccc3nc21 | inconclusive: 28%
Cc1cccc(N2Cc3ccccc3C2=NC(=O)c2ccc(Cl)nc2)c1 | inconclusive: 29.5%
COC(=O)c1c(NC(=O)c2ccc([N+](=O)[O-])o2)sc2c1CCN(C(C)C)C2 | inactive: 26%
CCn1c(COc2ccc(=O)n(-c3ccccc3)n2)nnc1SCc1cccc(OC)c1 | inactive: -4.1%
O=C(COC(=O)c1cccc(S(=O)(=O)N2CCc3ccccc32)c1)Nc1ncc(C(F)(F)F)cc1Cl | inconclusive: 25.6%
O=C(CSc1ccc(-c2ccccn2)nn1)Nc1ccc(F)c(F)c1 | inactive: 17%
CCCC(=O)Nc1cc(=O)n(C)c(=O)n1C | inactive: 4.23%
COc1ccc(NC(=O)C2CCN(Cc3cnn(-c4ccccc4)c3-n3cccc3)CC2)cc1OC | inconclusive: 29%
COc1ccc(C(=O)N2C(=S)NC(=O)/C2=C\c2ccc(C)cc2)cc1 | inconclusive: 26.8%
